According to the RNAGym collection of RNA variant scans (doi:10.1073/pnas.2313332121):
Variants at the floor of the assay are shown more often than the library holds them.

B1: TPR 5TU (parent)
chain: GGAUCUUCUCGAUCUAACAAAAAAGACAAAUCUGCCACAAAGCUUGAGAGCAUCUUCGGAUGCAGAGGCGGCAGCCUUCGGUGGCGCGAUAGCGCCAACGUUCUCAACUAUGACACGCAAAACGCGUGCUCCGUUGAAUGGAGUUUAUCAUG

Variants of: B1
Experiment: polymerase ribozyme fitness, log enrichment relative to wild type (log ratio); higher = more active; in vitro selection for triplet polymerase activity
In short: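 To select mutant libraries of each subunit of a heterodimeric triplet polymerase ribozyme, built by PCR and transcribed, each was annealed with a biotinylated primer, partner subunit and triplets, then incubated frozen at −7 °C. Extended constructs were gel-excised, captured on streptavidin beads and amplified by RT-PCR, in one round carried out in triplicate. Illumina sequencing of input and output libraries kept genotypes with ≥10 input reads and ≥1 read per output. Fitness is the base-2 logarithm of genotype enrichment relative to wild-type enrichment, from inverse-variance-weighted replicate averages.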

Polymerase ribozyme fitness (log ratio), -4.09:
G83C G136C

Polymerase ribozyme fitness (log ratio), -0.678:
G80A C132U

Polymerase ribozyme fitness (log ratio), 0.439:
G81C C93U U101G

Polymerase ribozyme fitness (log ratio), -2.83:
C85A A89G U146C

Polymerase ribozyme fitness (log ratio), -3.98:
G84C A115C C116U

Polymerase ribozyme fitness (log ratio), -3.11:
G83U G94U C116A C132G G140U

Polymerase ribozyme fitness (log ratio), -1.23:
G84U C95U

Polymerase ribozyme fitness (log ratio), -3.75:
G81C C132G

Polymerase ribozyme fitness (log ratio), -2.14:
U82C U135C U146C

Polymerase ribozyme fitness (log ratio), -3.27:
G83C C116A U146G

Polymerase ribozyme fitness (log ratio), -3.03:
G83A A115C A122U U134A

Polymerase ribozyme fitness (log ratio), -0.784:
G81C A89U C96G

Polymerase ribozyme fitness (log ratio), -2.54:
G83A A119C A137G G143A

Polymerase ribozyme fitness (log ratio), -4.04:
G80C C131G

Polymerase ribozyme fitness (log ratio), -1.87:
G84U G126A

Polymerase ribozyme fitness (log ratio), -3.04:
C79U G84A

Polymerase ribozyme fitness (log ratio), -0.0339:
G81C G141C

Polymerase ribozyme fitness (log ratio), -2.04:
G81A U127C

Polymerase ribozyme fitness (log ratio), -3.36:
G84A A110U

Polymerase ribozyme fitness (log ratio), -1.82:
G84A A142G

Polymerase ribozyme fitness (log ratio), -2.94:
G84U G92C A121U

Polymerase ribozyme fitness (log ratio), -3.46:
U82A C95A A97C C103U U134A

Polymerase ribozyme fitness (log ratio), -1.98:
G83C C96U A147U G152A

Polymerase ribozyme fitness (log ratio), -2.22:
C76A C125G U144G

Polymerase ribozyme fitness (log ratio), -2.41:
G83A C114U

Polymerase ribozyme fitness (log ratio), -0.719:
G84A U146A

Polymerase ribozyme fitness (log ratio), -4:
G83U G112U

Polymerase ribozyme fitness (log ratio), -2.88:
G83A A115G A150G
U82A A106U C116U G126U U145C

Polymerase ribozyme fitness (log ratio), -4.13:
C76U A91U

Polymerase ribozyme fitness (log ratio), -2.33:
U78C C87U G92A A115U

Polymerase ribozyme fitness (log ratio), -3.68:
U82A G86A A98U U134A

Polymerase ribozyme fitness (log ratio), 0.213:
G84A C118U G141A

Polymerase ribozyme fitness (log ratio), 0.0365:
C76U C96U

Polymerase ribozyme fitness (log ratio), 1.27:
G80A U144G

Polymerase ribozyme fitness (log ratio), -4.1:
C79U G140C

Polymerase ribozyme fitness (log ratio), 1.45:
U82G G141U

Polymerase ribozyme fitness (log ratio), -1.51:
C76A C96G

Polymerase ribozyme fitness (log ratio), -1.63:
G81U C95U

Polymerase ribozyme fitness (log ratio), -2:
G84U G117A

Polymerase ribozyme fitness (log ratio), ≤ -4.2:
U78A C93G C108U
G80C G84C G133A G141C
U77G A89G C95G C105G C108G
C79A U134C
C79A G84A C93G G140U
U78G G80A G83C C87A C95A U101G U104C U144C
C79G A110G
G81A A91U
C76G A107C G143U
C79U C85A U111A G141C
U82C A89U C96G G100A A106U
G83A C87A A138U G143A
G84U A91C C116A
U77G A122U
G83U C87G
C79A G80A G81A G88U
C79G C93U
G84A A147G G152U
U77C U104A G126U
U77A G81A A113U U134G
C76U U77C C93A C99G U101G C108U G136A
C76U G88A G152U
G83U C105G A107G U135G G152C
C79G U101G U109G U135C U148A
C79U G88C
C79U G88A
G84U C129A
G83C A107C G141U
U77C G84U A115G
G84U C87G A106C G140U
G81C C96A U101G U104G C114U A137U
G80U C105U C108U U109G
G84A U90G
C79A G94C
G83A C96G U151A
G84A C114G G133C
G81C C93U U130G C131U A150U
U77C C93U G100A A119U A150C
C79U G92A U146G U151A
G83C C95A G140C U148A C149A
C76G A98G A113U U151G
G83A C85A C87A A113U
U82G U104C C116U C125U A138C
G84U U102C C149G
G81A C87U A91U G112U G143A
G84U G86U C87G G136U
C79U C108G U109G U139G U145C
C79G C85U C93A A106G A137U G141U
U78G C85U G126U
U77C A91U U146A
C79G A122C G140A
G83A A91U G100U
C76U C93G C103G G117A
U77G U78G A106C
U77G C99U
U78G U127C
U77G C85A U148A
U78A C93A G124U
U82G G84U C99U G128C
G81A C87U G100C G133U G141U
C76G A91C C123U
U78G G141C
U82G C85G C105A G136A U145A
G83C A110G A142C U144A
U77A G94C C95G U134A
C79G G86C C99U U101G A142C
G84U C96G A120G U139C
C76G C87A
U77G C99U A147C
G84U A106U A121U C149G G152A
G81A C105U G124A G128U U135A A138C
G84U C96U G100A A107G
G80U G83C G100U A106G
C79G G84U G92C G94C C116A
C79G C114G G133C
C79A G140A
C76A G81U C96U U146C U151C
C79U C85A C132A
C79A U145C
C76A A89G C95G
C79G U82C A89U G92U
G83C U90C A107C C116A U127C A150C
C76G C87A U111A
C76G G100U A107G
C76G A138C U145A
C79A C103G
C79A C96A C131G
C76G G92A U134C
U82C C96G A107C C108G C114U
U78G G86A
G84A C93G C103G C105G U135G C149G
G80A U104C A138C
C79U A98G C125G
C76A C103A
G80C G94A
C76U C85A G88C C118U
C76G G83U C103U
U82C C93G C116G C118U G140A A150C
C79G U109A
U82C G88C C105U G141A C149U
G81C A98U A107G
C76A A110G
C76G G86A A150U
G84A C149A
C76G G84A C118A G141C
G81C A91G A107G
G80C C103G G124A A147G
G83A A115C U135A G143A U145G
C76G U127C A150U
G81A G88U C108G C116U
U82C C96G A115U U134A U146G A147G
G80C U90G C105A A113U U127G U135A
U77A G117U
C79A A98U C118A C125U A137U
G84U G133C U135C
C76G U90A C116G
G81A G84C A115G C125A
G81A G88A

Polymerase ribozyme fitness (log ratio), -4.15:
C76A U77G C95U G100U

Polymerase ribozyme fitness (log ratio), -2.53:
U82A A91G C105U

Polymerase ribozyme fitness (log ratio), -3.23:
G83A U104G A122U U134G

Polymerase ribozyme fitness (log ratio), -3.94:
G80C G83U C118A G141C

Polymerase ribozyme fitness (log ratio), -3.4:
G84U A115U

Polymerase ribozyme fitness (log ratio), -0.289:
G81A C95A A98U

Polymerase ribozyme fitness (log ratio), -1.05:
C76U C85U C99G

Polymerase ribozyme fitness (log ratio), 0.2:
G83U C103U

Polymerase ribozyme fitness (log ratio), -3.57:
C76A U104C
